The results in this text go back to article PMC6760808.

These are yes or no findings as the source states them, for the method shown. Some entries that bind do so weakly or less than the wild type. Where a sequence is shown, tags or fusion partners need not be part of it.

Assay [1] deals with T1, NPHP5-mCh-mito (mouse) (UniProt Q8BP00).
T1 sequence: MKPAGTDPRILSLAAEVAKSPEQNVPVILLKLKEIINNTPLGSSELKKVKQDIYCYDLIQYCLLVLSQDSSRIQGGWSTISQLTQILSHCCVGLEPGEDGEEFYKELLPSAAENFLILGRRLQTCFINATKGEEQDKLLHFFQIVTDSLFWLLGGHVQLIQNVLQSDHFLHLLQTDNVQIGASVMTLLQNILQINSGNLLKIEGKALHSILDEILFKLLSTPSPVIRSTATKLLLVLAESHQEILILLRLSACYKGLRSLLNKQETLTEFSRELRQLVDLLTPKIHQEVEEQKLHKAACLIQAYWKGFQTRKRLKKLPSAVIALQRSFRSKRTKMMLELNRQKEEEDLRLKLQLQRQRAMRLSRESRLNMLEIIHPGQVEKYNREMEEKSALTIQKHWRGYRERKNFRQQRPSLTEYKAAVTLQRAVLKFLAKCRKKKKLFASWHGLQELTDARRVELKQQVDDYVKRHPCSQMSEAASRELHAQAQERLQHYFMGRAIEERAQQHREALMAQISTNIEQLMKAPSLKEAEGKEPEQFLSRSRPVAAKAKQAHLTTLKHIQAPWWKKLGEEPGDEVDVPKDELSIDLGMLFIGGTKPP
The assay is described as follows: knocksideways (recruitment to the mitochondrial surface, fluorescence microscopy); NPHP-mCh-mito bait on the mitochondrial surface co-expressed with EGFP-tagged nucleoporin in COS-7 cells; fixed 24 hours post-transfection.

The target of assay [2] is T2, NPHP1-mCh-mito (UniProt O15259).
T2 sequence: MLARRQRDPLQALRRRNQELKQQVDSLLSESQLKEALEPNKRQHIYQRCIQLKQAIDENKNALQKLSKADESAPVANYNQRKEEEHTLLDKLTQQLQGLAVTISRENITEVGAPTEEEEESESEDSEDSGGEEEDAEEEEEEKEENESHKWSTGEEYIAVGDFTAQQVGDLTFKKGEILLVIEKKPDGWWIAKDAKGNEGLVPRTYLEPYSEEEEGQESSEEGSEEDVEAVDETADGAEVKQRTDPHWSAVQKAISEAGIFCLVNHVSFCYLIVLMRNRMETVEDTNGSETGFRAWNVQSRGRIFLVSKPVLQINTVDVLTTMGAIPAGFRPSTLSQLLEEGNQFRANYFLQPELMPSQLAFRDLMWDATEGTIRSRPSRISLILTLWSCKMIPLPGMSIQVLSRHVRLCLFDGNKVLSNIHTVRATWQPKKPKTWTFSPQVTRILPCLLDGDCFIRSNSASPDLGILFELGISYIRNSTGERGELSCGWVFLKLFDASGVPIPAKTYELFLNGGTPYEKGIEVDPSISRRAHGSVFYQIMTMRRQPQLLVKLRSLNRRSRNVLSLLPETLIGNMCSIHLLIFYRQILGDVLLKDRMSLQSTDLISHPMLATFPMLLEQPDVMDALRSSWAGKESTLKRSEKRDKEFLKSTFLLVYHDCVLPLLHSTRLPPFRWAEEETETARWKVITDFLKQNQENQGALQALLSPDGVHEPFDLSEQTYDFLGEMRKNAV
Described as above.

B1: Nup155-EGFP3 (protein, UniProt O75694 1-1391)
chain: MPSSLLGAAMPASTSAAALQEALENAGRLIDRQLQEDRMYPDLSELLMVSAPNNPTVSGMSDMDYPLQGPGLLSVPNLPEISSIRRVPLPPELVEQFGHMQCNCMMGVFPPISRAWLTIDSDIFMWNYEDGGDLAYFDGLSETILAVGLVKPKAGIFQPHVRHLLVLATPVDIVILGLSYANLQTGSGVLNDSLSGGMQLLPDPLYSLPTDNTYLLTITSTDNGRIFLAGKDGCLYEVAYQAEAGWFSQRCRKINHSKSSLSFLVPSLLQFTFSEDDPILQIAIDNSRNILYTRSEKGVIQVYDLGQDGQGMSRVASVSQNAIVSAAGNIARTIDRSVFKPIVQIAVIENSESLDCQLLAVTHAGVRLYFSTCPFRQPLARPNTLTLVHVRLPPGFSASSTVEKPSKVHRALYSKGILLMAASENEDNDILWCVNHDTFPFQKPMMETQMTAGVDGHSWALSAIDELKVDKIITPLNKDHIPITDSPVVVQQHMLPPKKFVLLSAQGSLMFHKLRPVDQLRHLLVSNVGGDGEEIERFFKLHQEDQACATCLILACSTAACDREVSAWATRAFFRYGGEAQMRFPTTLPPPSNVGPILGSPVYSSSPVPSGSPYPNPSFLGTPSHGIQPPAMSTPVCALGNPATQATNMSCVTGPEIVYSGKHNGICIYFSRIMGNIWDASLVVERIFKSGNREITAIESSVPCQLLESVLQELKGLQEFLDRNSQFAGGPLGNPNTTAKVQQRLIGFMRPENGNPQQMQQELQRKFHEAQLSEKISLQAIQQLVRKSYQALALWKLLCEHQFTIIVAELQKELQEQLKITTFKDLVIRDKELTGALIASLINCYIRDNAAVDGISLHLQDICPLLYSTDDAICSKANELLQRSRQVQNKTEKERMLRESLKEYQKISNQVDLSNVCAQYRQVRFYEGVVELSLTAAEKKDPQGLGLHFYKHGEPEEDIVGLQAFQERLNSYKCITDTLQELVNQSKAAPQSPSVPKKPGPPVLSSDPNMLSNEEAGHHFEQMLKLSQRSKDELFSIALYNWLIQVDLADKLLQVASPFLEPHLVRMAKVDQNRVRYMDLLWRYYEKNRSFSNAARVLSRLADMHSTEISLQQRLEYIARAILSAKSSTAISSIAADGEFLHELEEKMEVARIQLQIQETLQRQYSHHSSVQDAVSQLDSELMDITKLYGEFADPFKLAECKLAIIHCAGYSDPILVQTLWQDIIEKELSDSVTLSSSDRMHALSLKIVLLGKIYAGTPRFFPLDFIVQFLEQQVCTLNWDVGFVIQTMNEIGVPLPRLLEVYDQLFKSRDPFWNRMKKPLHLLDCIHVLLIRYVENPSQVLNCERRRFTNLCLDAVCGYLVELQSMSSSVAVQAITGNFKSLQAKLERLH
On to B1, for which the binding result in assay [1] is listed as “binds”; in assay [2] it was “no binding”.
